The record followed here is publication PMC7005872.

One test has as its target T1, GFP-TBK1 WT, Q9UHD2.
T1 chain: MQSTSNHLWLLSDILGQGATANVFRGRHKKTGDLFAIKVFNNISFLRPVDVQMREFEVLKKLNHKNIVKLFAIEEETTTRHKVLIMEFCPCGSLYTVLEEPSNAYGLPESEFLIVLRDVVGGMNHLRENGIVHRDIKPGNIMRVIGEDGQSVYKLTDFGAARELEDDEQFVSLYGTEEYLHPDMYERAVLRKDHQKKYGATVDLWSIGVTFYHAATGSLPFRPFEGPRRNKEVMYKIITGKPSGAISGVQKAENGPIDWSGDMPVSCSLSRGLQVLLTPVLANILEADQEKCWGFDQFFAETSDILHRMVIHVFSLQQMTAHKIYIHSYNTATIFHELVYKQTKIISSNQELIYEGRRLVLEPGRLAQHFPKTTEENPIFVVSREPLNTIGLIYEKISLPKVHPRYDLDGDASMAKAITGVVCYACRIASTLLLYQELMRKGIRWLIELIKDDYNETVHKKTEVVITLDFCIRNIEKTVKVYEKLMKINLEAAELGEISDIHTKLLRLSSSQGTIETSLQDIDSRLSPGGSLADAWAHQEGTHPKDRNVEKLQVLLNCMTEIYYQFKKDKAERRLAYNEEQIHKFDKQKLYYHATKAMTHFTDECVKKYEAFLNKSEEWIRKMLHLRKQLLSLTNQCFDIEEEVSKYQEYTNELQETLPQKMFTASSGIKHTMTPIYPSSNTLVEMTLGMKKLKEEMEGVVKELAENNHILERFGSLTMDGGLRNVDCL
The test is described as follows: co-IP; GFP-TBK1 and FLAG-TBK1 co-expressed in GAS-infected HeLa WT cells; immunoblot. The settings on record: remark: other sources report otherwise. (In general: In western blotting, separated proteins are transferred to a membrane and probed.)

A further test concerns the target GFP-TBK1-S172E (UniProt Q9UHD2). The test is described as follows: co-IP; lysate of HeLa WT or TBC1D9-KO cells transfected with GFP-TBK1 S172E and FLAG-TBK1 S172E, immunoprecipitated with GFP-Trap.
For test [1], the target named is T2, endogenous TBK1 (human (endogenous in HeLa)) (UniProt Q9UHD2).
T2 sequence: T1 chain
The test is described as follows: co-IP; endogenous proteins; lysis in 10 mM Tris-HCl pH 7.4, 150 mM NaCl, 10 mM MgCl2, 1 mM EDTA, 1% Triton X-100; antibody and Protein G Sepharose at 4 °C; rabbit immunoglobulin fraction as negative control.

Where a chain is given by its changes, count along the chain named. Names and notes keep the numbering of the source. No constants are given. Whether binding was seen depends on the method and setting. In cells and extracts the contact can be indirect. Some entries that bind do so weakly or less than the wild type. For part of these data: Where a sequence is shown, tags or fusion partners need not be part of it.

B1: GFP-TBK1 WT, Q9UHD2 1-729 (protein)
chain: T1 chain
For the molecule B1, in the test with GFP-TBK1 WT, Q9UHD2, the binding result was “binds”.

B2: GFP-TBK1-S172E (protein, UniProt Q9UHD2 1-729)
chain: T1 chain with S172E
Regarding B2, in the test with GFP-TBK1-S172E, the binding result is given as “binds”.

B3: endogenous TBC1D9 (protein, UniProt Q6ZT07 1-1266)
chain: MWVNPEEVLLANALWITERANPYFILQRRKGHAGDGGGGGGLAGLLVGTLDVVLDSSARVAPYRILYQTPDSLVYWTIACGGSRKEITEHWEWLEQNLLQTLSIFENENDITTFVRGKIQGIIAEYNKINDVKEDDDTEKFKEAIVKFHRLFGMPEEEKLVNYYSCSYWKGKVPRQGWMYLSINHLCFYSFLMGREAKLVIRWVDITQLEKNATLLLPDVIKVSTRSSEHFFSVFLNINETFKLMEQLANIAMRQLLDNEGFEQDRSLPKLKRKSPKKVSALKRDLDARAKSERYRALFRLPKDEKLDGHTDCTLWTPFNKMHILGQMFVSTNYICFTSKEENLCSLIIPLREVTIVEKADSSSVLPSPLSISTRNRMTFLFANLKDRDFLVQRISDFLQQTTSKIYSDKEFAGSYNSSDDEVYSRPSSLVSSSPQRSTSSDADGERQFNLNGNSVPTATQTLMTMYRRRSPEEFNPKLAKEFLKEQAWKIHFAEYGQGICMYRTEKTRELVLKGIPESMRGELWLLLSGAINEKATHPGYYEDLVEKSMGKYNLATEEIERDLHRSLPEHPAFQNEMGIAALRRVLTAYAFRNPNIGYCQAMNIVTSVLLLYAKEEEAFWLLVALCERMLPDYYNTRVVGALVDQGVFEELARDYVPQLYDCMQDLGVISTISLSWFLTLFLSVMPFESAVVVVDCFFYEGIKVIFQLALAVLDANVDKLLNCKDDGEAMTVLGRYLDSVTNKDSTLPPIPHLHSLLSDDVEPYPEVDIFRLIRTSYEKFGTIRADLIEQMRFKQRLKVIQTLEDTTKRNVVRTIVTETSFTIDELEELYALFKAEHLTSCYWGGSSNALDRHDPSLPYLEQYRIDFEQFKGMFALLFPWACGTHSDVLASRLFQLLDENGDSLINFREFVSGLSAACHGDLTEKLKLLYKMHVLPEPSSDQDEPDSAFEATQYFFEDITPECTHVVGLDSRSKQGADDGFVTVSLKPDKGKRANSQENRNYLRLWTPENKSKSKNAKDLPKLNQGQFIELCKTMYNMFSEDPNEQELYHATAAVTSLLLEIGEVGKLFVAQPAKEGGSGGSGPSCHQGIPGVLFPKKGPGQPYVVESVEPLPASLAPDSEEHSLGGQMEDIKLEDSSPRDNGACSSMLISDDDTKDDSSMSSYSVLSAGSHEEDKLHCEDIGEDTVLVRSGQGTAALPRSTSLDRDWAITFEQFLASLLTEPALVKYFDKPVCMMARITSAKNIRMMGKPLTSASDYEISAMSG
Take B3: the binding entry in test [1] is reported as “binds”.
